PubChem BioAssay AID686978 (National Center for Advancing Translational Sciences (NCATS), 2013)
Out of some 420,000 compounds screened, about 64,000 (15%) were called active. The inconclusive results got no clear call from the source; some entries with a clear call stand among them for comparison. Calls follow the shape of the dose curve; as a rule, active = well fitted inhibition curve with a large enough effect; inconclusive = small, poorly fitted or top-dose-only effect; inactive = flat fitted curve, though single readings scatter. No potency is given beside an inconclusive call; the fits are too rough.
% is scaled to controls: 0 for no effect and ±100 for the full control effect; potency is read from the fitted curve at half-maximal effect; tags tell the direction and shape of the fitted curve.

Assay: qHTS for Inhibitors of human tyrosyl-DNA phosphodiesterase 1 (TDP1): qHTS in cells in absence of CPT; also: nearly all actives have a fitted effect of over 55% in size
Conditions: DT40 Tdp1-/- hTDP1 cells, no CPT, ATP luminescence, 48 h; activity change, negative = growth inhibition: at 46.2 µM (top of the series) unless noted
In short: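 Chicken DT40 Tdp1-/- cells complemented with human TDP1, screened without camptothecin (DMSO vehicle only), 400 cells/well. Compounds pin-transferred, cells incubated at 37 °C for at least 48 hr. Growth read as ATP-dependent luminescence (CellTiter-Glo, 30 min at RT).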
With `CCN1CCN(Cc2nc3cc(NC(=O)c4ccccc4[N+](=O)[O-])ccc3n2CC)CC1` the Potency was “inactive”. With `O=C1c2c(-c3ccc(Br)cc3)noc2CCN1Cc1cn(Cc2ccccc2)nn1` the Potency was active: 18.4 µM. With `Cn1c(=NC(=O)CCS(=O)(=O)c2ccccc2)sc2cc(F)ccc21` the Potency was inconclusive [inhibitor, single point]. In the case of `CCN(C(=O)C1CCN(S(=O)(=O)c2ccc3c(c2)oc(=O)n3C)CC1)c1cccc(C)c1`, the Potency is reported as inconclusive [inhibitor, single point]. For `Cc1ccc(C)c(S(=O)(=O)NCc2ccc(C(=O)NCc3ccco3)cc2)c1`, the activity change, negative = growth inhibition was inconclusive: -30.8% [inhibitor]. With `Cc1ccc(C(=O)NC2CC3CCC(C2)N3C)cc1` (configuration not stated) the Potency was “inactive”. With `CCCCNC(=O)CCc1nc2cccnc2n1Cc1ccccc1` the Potency was “inactive”. With `COc1cc(/C=N/NC(=O)CC#N)ccc1Oc1nc(Cl)ncc1F` the activity change, negative = growth inhibition was inconclusive: -31.7% [inhibitor]. For `CCCCCCSc1ccc(-c2nc3cnccn3c2NC2CCCCC2)cc1`, the Potency was inconclusive [inhibitor, single point]. In the case of `CCC1CCCCN1C(=O)c1ccc2nc(Cc3ccc(OC)cc3)oc2c1` (configuration not stated), the Potency is reported as inconclusive [inhibitor, single point]. With `Cc1cc(C)c2c(-n3cccc3)c(C(=O)NCCCN3CCCCC3)sc2n1` the Potency was inconclusive [inhibitor, single point]. With `CC(NC(=O)c1c(F)cccc1Cl)c1ccc(-n2ccnc2)cc1` (configuration not stated) the Potency was “inactive”. With `C#CCOCCOCCOCCNc1nc(N2CCN(C(=O)CCCCCCCCCCNC(=O)Cn3cc(C[C@@H](C)O)nn3)CC2)nc(N2CCN(C(=O)CCCCCCCCCCNC(=O)[C@H](CCCCN)n3cc(CCCC(=O)O)nn3)CC2)n1` the Potency was “inactive”. With `COc1cccc(CN2CCC2(C)C(=O)Nc2cccc3cccnc23)c1OC` (configuration not stated) the Potency was active: 18.4 µM. In the case of `O=C(CCc1ccccc1)NCCc1csc(-c2cccc(F)c2)n1`, the Potency is reported as active: 18.4 µM. For `COc1ccc(NC(=O)c2ccc3c(c2)c(C)c(C)n3Cc2ccc(F)cc2)cc1`, the Potency was active: 4.61 µM. With `O=C(Nc1cccc(F)c1)c1ccc2c(c1)OCO2` the Potency was inconclusive [inhibitor, single point]. For `Cc1ccc(S(=O)(=O)N2CCN(S(C)(=O)=O)C2C)cc1` (configuration not stated), the Potency was “inactive”. In the case of `Cn1cccc1C(=O)N1CCC2(CCCN(C(c3ccccc3)c3ccccc3)C2)CC1`, the Potency is reported as inconclusive [inhibitor, single point]. In the case of `O=C(NCc1ccccc1)c1cc(C2COCCN2C(=O)CCc2ccccc2)on1` (configuration not stated), the Potency is reported as “inactive”. In the case of `CCC(C)[C@H](NS(=O)(=O)c1ccc(C)cc1)C(=O)N1CCC(C(=O)N2CCC(C(N)=O)CC2)CC1` (some centres not stated), the Potency is reported as “inactive”. With `COc1ccccc1NC(=O)Nc1nc(C(N)CCc2ccccc2)cs1` (configuration not stated) the Potency was active: 13 µM. With `O=C(C1CCCN(S(=O)(=O)c2ccccc2)C1)N1CCCc2ccccc21` (configuration not stated) the Potency was active: 18.4 µM. For `O=C(NC1CCCC1)C(c1ccccn1)N(C(=O)c1csnn1)C1CCCCC1` (configuration not stated), the Potency was inconclusive [inhibitor, partial curve]. For `CCN(CC(=O)Nc1c(F)cccc1F)C(=O)c1ccc(S(=O)(=O)NCc2ccco2)cc1`, the Potency was inconclusive [inhibitor, single point]. In the case of `COc1ccc(-c2nnc(NC(=O)c3ccc(S(=O)(=O)N4COCC4(C)C)cc3)o2)cc1`, the Potency is reported as active: 3.66 µM. With `COc1cc(C)ccc1OCCCOc1cc(C)ccc1Cl` the Potency was inconclusive [inhibitor, single point]. With `COc1ccc(-c2csc(C(C)(O)c3ccc(F)c(F)c3)n2)cn1` (configuration not stated) the Potency was inconclusive [inhibitor, single point]. For `O=C(CBr)c1ccc([N+](=O)[O-])c(CS(=O)(=O)c2ccc(Cl)cc2)c1`, the Potency was inconclusive [inhibitor, single point]. In the case of `COc1cc(OC)nc(NC(=O)CN2CCN(c3ccc(F)cc3)CC2)n1`, the Potency is reported as “inactive”. With `CCn1c(/C=C/c2ccccc2[N+](=O)[O-])nc2ccccc2c1=O` the Potency was inconclusive [inhibitor, single point]. For `CN(Cc1cccnc1)C(=O)c1ccc(Cl)c(NS(=O)(=O)c2ccc(F)cc2)c1`, the Potency was “inactive”. With `CCOC(=O)C1=C(C)Nc2ccc(C)cc2S1` the Potency was inconclusive [inhibitor, single point]. With `C/C=C(\C)C(=O)N1CCC(C(=O)c2ccccc2)CC1` the Potency was “inactive”. In the case of `O=C(Cc1cc(=O)[nH][nH]1)N/N=C/C=C/c1ccccc1`, the Potency is reported as active: 29.1 µM. With `COc1ccc(CNC(=O)C(C)N2C(=O)NC(c3ccccc3)(c3ccccc3)C2=O)cc1` (configuration not stated) the Potency was “inactive”. For `CCN(CC)c1ccc(/C=C/c2ccnc3ccccc23)cc1`, the Potency was active: 17.8 µM. For `O=C(c1ccc([N+](=O)[O-])s1)N1CCCc2ccccc21`, the Potency was inconclusive [inhibitor, partial curve]. With `COc1ccc(-c2nnc(N(C)C(=O)C3CCOC3)s2)cc1` (configuration not stated) the Potency was inconclusive [inhibitor, single point]. For `Cc1c(C(=O)O)cccc1-c1ccc(/C=C2/NC(=O)N(c3ccccc3)C2=O)o1`, the Potency was inconclusive [inhibitor, single point]. With `COc1ccccc1N1CCN(Cc2cc(=O)oc3cc(C)cc(C)c23)CC1` the Potency was inconclusive [inhibitor, single point]. In the case of `Cc1nn(-c2nc3ccccc3s2)c(N)c1-c1ccccc1`, the Potency is reported as inconclusive [inhibitor, single point]. For `O=C(Cc1cccs1)Nc1cccc(C(=O)Nc2ccco2)c1`, the Potency was inconclusive [inhibitor, partial curve]. For `COC1=CC(=O)OC(C)(c2ccccc2)C1` (configuration not stated), the Potency was “inactive”. With `O=C1CCC(c2ccccc2)=NN1Cc1c(F)cccc1Cl` the Potency was inconclusive [inhibitor, single point]. With `O=C(CCC(=O)N(CC(=O)NC1CCCC1)Cc1ccc2c(c1)OCO2)Nc1ccccn1` the Potency was “inactive”. With `O=C1CN(C(=O)COc2ccc([N+](=O)[O-])cc2Cl)c2ccccc2N1` the Potency was “inactive”. With `COc1ccc(-c2nn(C)c3sc(C(=O)N4CCN(c5ccccc5F)CC4)cc23)cc1OC` the Potency was inconclusive [inhibitor, single point]. With `CN1CCN(c2ccccc2NC(=O)c2cc3ccccc3o2)CC1` the Potency was inconclusive [inhibitor, single point]. In the case of `COC(=O)C(C)c1ccc(C(=O)c2cccs2)cc1` (configuration not stated), the Potency is reported as “inactive”. For `COc1ccccc1C(NC(=O)C1CCN(CCc2ccc(Br)cc2)CC1)c1ccccn1` (configuration not stated), the Potency was inconclusive [inhibitor, full curve]. With `CC(NC(=O)C(=O)c1cn(CC(=O)N2CCCC2)c2ccccc12)c1ccccc1` (configuration not stated) the Potency was inconclusive [inhibitor, single point]. In the case of `O=C(Cc1ccc(Cl)cc1)N1CCN(c2ccc(F)cc2)CC1`, the Potency is reported as inconclusive [inhibitor, single point]. With `COc1ccccc1-c1cc(NC(=O)COc2ccccc2Cl)n(-c2ccccc2)n1` the Potency was “inactive”. For `CCn1cc(S(=O)(=O)NC(C)c2cc(OC)ccc2OC)cn1` (configuration not stated), the Potency was “inactive”. In the case of `O=C(Nc1ccccc1C(=O)Nc1ccncc1)c1cccc([N+](=O)[O-])c1`, the Potency is reported as inconclusive [inhibitor, single point]. With `COc1ccc(C(=O)Nc2ccccc2-c2ccccc2)cc1Cl` the Potency was inconclusive [inhibitor, single point]. With `CCS(=O)(=O)c1ccc(-c2csc(-c3ccc(Cl)cc3)n2)c(Cl)c1Cl` the Potency was inconclusive [inhibitor, single point]. For `Cc1cnc(NC(=O)Nc2ccc(OCc3ccccc3)cc2)c(Br)c1`, the Potency was active: 16.4 µM. With `O=C(CCNC(=O)c1ccccc1)NNC(=O)c1ccccc1Br` the Potency was “inactive”. In the case of `O=[N+]([O-])c1ccc(NN=C2CCCCC2)c([N+](=O)[O-])c1`, the Potency is reported as inconclusive [inhibitor, single point]. For `Cc1ccc2oc(=O)c3cc(C(=O)NCCCN4CCN(C)CC4)sc3c2c1`, the Potency was inconclusive [inhibitor, single point]. In the case of `Cc1cccc2c1-c1sc(C(=O)NCCc3ccc(Cl)cc3)cc1CO2`, the Potency is reported as active: 7.31 µM. In the case of `CCCCOC(=O)Nc1nc(C)c(C(=O)OCC)s1`, the Potency is reported as inconclusive [inhibitor, partial curve]. With `O=C(CCNS(=O)(=O)c1ccc2c(c1)CCN2C(=O)C1CC1)N1CCN(c2ccc(F)cc2)CC1` the Potency was active: 9.2 µM. For `CCC[C@@H](CN1CCC[C@H]1CN1C(N)=NC[C@H]1CC(C)C)N1C[C@@H](Cc2ccccc2)N(CCc2ccc(Cl)c(Cl)c2)C1=N`, the Potency was inconclusive [inhibitor, single point]. With `CCc1ccc(OCC(=O)Nc2cccc3nsnc23)cc1` the Potency was “inactive”. In the case of `CCCOc1cccc(C(=O)Nc2ccc(-c3nc4ccccc4s3)c(Cl)c2)c1`, the Potency is reported as inconclusive [inhibitor, partial curve]. With `COc1ccc(CCNC(=O)CCCCn2c(=O)c3ccccc3n(CC(=O)Nc3ccccc3C)c2=O)cc1OC` the Potency was “inactive”. With `COc1cc2c(cc1NC(=O)CN(C)Cc1nc3ccccc3c(=O)[nH]1)oc1ccccc12` the Potency was active: 23.1 µM. For `CC(C)(C)C(=O)NC(=S)Nc1ccccc1C(=O)NC1CCCCC1`, the Potency was inconclusive [inhibitor, single point]. For `COc1ccc(S(=O)(=O)c2cn(Cc3ccccc3)c3cc(N4CCCC4)c(F)cc3c2=O)cc1`, the Potency was active: 5.17 µM.
